Assay results reported in PubChem BioAssay AID1768 (National Center for Advancing Translational Sciences (NCATS), 2009).
Values joined by “and” are separate entries in the source; they are usually repeats but may differ in a detail not shown here. Equal values may be shown once. Hit rate of the full screen: of about 270,000 compounds, about 620 (0.23%) were called active. Inconclusive results, whose numbers are uncertain, are shown with a selection of clear calls. Calls follow the shape of the dose curve; as a rule, active = well fitted inhibition curve with a large enough effect in the polarisation, with a control signal flat (not every such curve was filed as active); inconclusive = small, poorly fitted or top-dose-only effect, or effect the other way, or a change in a side signal; inactive = no such curve, though single readings can be large or run the other way; the % refers to the polarisation. Where the call is inconclusive, the potency comes from a doubtful curve fit. “Side channel” marks fits to a control or component signal instead of the main read-out.

Biological target: Menin (Homo sapiens) (UniProt O00255)
Chain of UniProt O00255 (O00255 whole entry, looked up): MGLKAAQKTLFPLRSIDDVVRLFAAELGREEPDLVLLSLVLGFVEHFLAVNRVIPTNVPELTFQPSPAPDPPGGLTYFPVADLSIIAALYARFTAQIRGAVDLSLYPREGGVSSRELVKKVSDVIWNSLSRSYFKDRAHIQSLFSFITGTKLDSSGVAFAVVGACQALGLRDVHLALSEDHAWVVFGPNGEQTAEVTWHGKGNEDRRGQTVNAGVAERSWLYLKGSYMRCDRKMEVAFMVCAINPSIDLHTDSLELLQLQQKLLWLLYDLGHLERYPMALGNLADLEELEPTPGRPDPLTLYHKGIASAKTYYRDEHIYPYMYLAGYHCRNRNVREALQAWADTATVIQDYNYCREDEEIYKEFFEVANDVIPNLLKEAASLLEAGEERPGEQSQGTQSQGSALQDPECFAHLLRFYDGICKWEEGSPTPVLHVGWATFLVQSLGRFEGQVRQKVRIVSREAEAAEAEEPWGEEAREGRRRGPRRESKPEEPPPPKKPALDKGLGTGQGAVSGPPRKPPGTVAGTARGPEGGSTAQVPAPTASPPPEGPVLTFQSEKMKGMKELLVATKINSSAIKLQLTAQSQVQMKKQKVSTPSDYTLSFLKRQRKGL
Assay: qHTS Assay for Inhibitors Targeting the Menin-MLL Interaction in MLL Related Leukemias: Competition With Texas Red Labeled MLL-derived Mutant Peptide; as to FP activity change, negative = inhibition: % of control where 0% means no effect
Conditions: fluorescence polarization; FP activity change, negative = inhibition: at 61.6 µM (top of the series)
Potency is read from the fitted curve at half-maximal effect; tags tell the direction and shape of the fitted curve or compound fluorescence and quenching.

Row | SMILES | Potency | FP activity change, negative = inhibition
1 | CCCCn1c(=O)[nH]c(=O)c2c1nc(-c1cc(Br)c(OCC)c(OC)c1)n2C | inconclusive: 11.2 µM [fluorescent, side channel, partial curve] | 
2 | COc1cc(NC(=O)CSc2ncnc3scc(-c4ccccc4)c23)c(C(=O)O)cc1OC | inconclusive: 31.6 µM [quencher, side channel, partial curve] | 
3 | C[C@H]1Cc2c(COc3ccccc3)nc3c(c2CO1)CN(C(=O)c1cccnc1)CC3 |  | inactive: -13.5% [at 11.7 µM]
4 | CC(=O)c1ccc(NC(=O)C2=CC(c3ccco3)=NS(=O)(=O)N2C)cc1 | inconclusive: 31.6 µM [quencher, side channel, single point] | 
5 | Cc1ccc([N+](=O)[O-])cc1NC(=O)CCSc1ccc(Cl)cc1 | inconclusive: 3.16 µM [quencher, side channel, full curve] | 
6 | O=c1c(-c2ccc(F)cc2)nc2cnc(Oc3ccccc3)nc2n1Cc1cccs1 | inconclusive: 8.91 µM [fluorescent, side channel, full curve] | 
7 | O=C(O)CSc1nc2sc3c(c2c(=O)n1Cc1ccccc1)CCCCC3 | inconclusive: 14.1 µM [quencher, side channel, partial curve] | 
8 | O=c1oc2ccccc2c(Nc2cc3ccccc3cc2O)c1[N+](=O)[O-] | inconclusive: 2.82 µM [quencher, side channel, full curve] | 
9 | Cn1c(=O)[nH]c2nnc(-c3ccc(Cl)c(Cl)c3)nc2c1=O | inconclusive: 11.2 µM [quencher, side channel, partial curve] | 
10 | O=C(CNc1cccc2ccccc12)N/N=C/C=C/c1ccco1 | inconclusive: 25.1 µM [quencher, side channel, partial curve] | 
11 | Cc1ccc(-c2nnn(C/C(N)=N/O)n2)cc1 | inconclusive: 39.8 µM [quencher, side channel, single point] | 
12 | NS(=O)(=O)c1ccc(NC(=O)C2Cc3ccccc3C(=O)O2)cc1 (stereo unspecified) | inconclusive: 39.8 µM [fluorescent, side channel, single point] | 
13 | CC(=O)Oc1ccc(C(=O)[C@H]2[C@H]3C(=O)N(c4cccc5ccccc45)C(=O)[C@H]3[C@@H]3C=CC=NN32)cc1 | inconclusive: 25.1 µM [quencher, side channel, partial curve] | 
14 | C/C(=N\NC(=S)Nc1ccc(C)cc1)c1cccc(N)c1 | inconclusive: 12.6 µM [quencher, side channel, partial curve] | 
15 | CCCCn1c(NS(=O)(=O)c2ccccc2)c(S(=O)(=O)c2ccc(C)cc2)c2nc3ccccc3nc21 | inconclusive: 17.8 µM [quencher, side channel, partial curve] | 
16 | CC(/C=C/c1ccco1)=N/NC(=O)CNc1ccccc1C | inconclusive: 31.6 µM [quencher, side channel, partial curve] | 
17 | O=C(NC1CCCC1)c1cc(-c2ccccc2Cl)on1 | inconclusive: 15.8 µM [fluorescent, side channel, partial curve] | 
18 | Cc1[nH]c2ccc(Br)cc2c(=O)c1CN1CCCCC1 | inactive | 
19 | Cc1nc(-c2ccc(Cl)cc2)sc1C(=O)CBr | inconclusive: 28.2 µM [quencher, side channel, single point] | 

Row | SMILES | Potency | FP activity change, negative = inhibition
20 | CCC(C)(C)NC(=O)C(c1ccc(OC)cc1)N(C(=O)CCC(=O)Nc1cc(C)on1)c1cc(OC)ccc1OC (stereo unspecified) | inconclusive: 39.8 µM [fluorescent, side channel, partial curve] | 
21 | Cc1ccc2nc3c(cc2c1)c(NC(=O)C(C)(C)C)nn3CC(C)C | inconclusive: 28.2 µM [fluorescent, side channel, single point] | 
22 | CCc1ccccc1NS(=O)(=O)c1cccc2nsnc12 | inconclusive: 5.62 µM [inhibitor, partial curve] | 
23 | O=C(COc1ccc2ccccc2c1Br)NNC(=O)Nc1ccccc1 | inconclusive: 28.2 µM [inhibitor, single point] | 
24 | CC(=O)NCCn1c(SCC(=O)OCc2ccccc2)nc2ccccc2c1=O | inconclusive: 35.5 µM [inhibitor, single point] | 
25 | CCN(CC)c1ccc(/C=N/Nc2nc3ccccc3[nH]2)c(O)c1 | inconclusive: 17.8 µM [quencher, side channel, partial curve] | 
26 | Cc1ccc(-c2nnc(SCC(=O)NCC3CCCO3)n2C)cc1 (stereo unspecified) | inactive | 
27 | CCOC(=O)N1CCN(S(=O)(=O)c2ccc(C(=O)Nc3nc4ccc(F)cc4s3)cc2)CC1 | inconclusive: 7.08 µM [quencher, side channel, full curve, poor fit] | 
28 | Cc1c(CNCCCc2ccccc2)c(C(=O)O)c(C)n1Cc1ccccc1 | inconclusive: 15.8 µM [fluorescent, side channel, partial curve] | 
29 | COc1cc(C(=S)N2CCC(Cc3ccccc3)CC2)ccc1OCC(N)=O | inconclusive: 39.8 µM [inhibitor, single point] | 
30 | CCOC(=O)c1c2ccc(OCC(=O)NN)cc2n2ccccc12 | inconclusive: 28.2 µM [quencher, side channel, partial curve] | 
31 | Cc1ccc(C)c(NC(=O)C(=O)NCCc2c[nH]c3ccccc23)c1 | inconclusive: 14.1 µM [quencher, side channel, partial curve] | 
32 | Cc1ccc(N(CC(=O)NC(C)C)C(=O)CCC(=O)Nc2nccs2)cc1C | inconclusive: 39.8 µM [inhibitor, single point] | 
33 | O=C(c1ccco1)N1CCN(Cc2nnc(-c3ccccc3)o2)CC1 | inconclusive: 12.6 µM [inhibitor, partial curve] | 
34 | O=C(Sc1nnc(-c2ccccc2)o1)N1c2ccccc2Sc2ccccc21 | inconclusive: 28.2 µM [quencher, side channel, single point] | 
35 | O=[N+]([O-])c1ccc(N/N=C/c2cccc(O)c2O)c(S(=O)(=O)N2CCOCC2)c1 | inconclusive: 10 µM [quencher, side channel, partial curve] | 
36 | Cc1ccc2nc(NC(=O)c3ccc(Cn4cc(Cl)cn4)o3)sc2c1 | inconclusive: 31.6 µM [quencher, side channel, partial curve] | 
37 | O=C(Nc1ccccc1)Nc1nc(-c2ccc(Cl)cc2)cs1 | inconclusive: 20 µM [inhibitor, single point] | 
38 | O=S(=O)(N/N=C\C=C\c1ccccc1)c1ccc(Cl)cc1 | inconclusive: 22.4 µM [quencher, side channel, single point] | 

Row | SMILES | Potency | FP activity change, negative = inhibition
39 | Cc1cc(NC(=O)c2ccccc2NS(=O)(=O)c2c(C)c(C)cc(C)c2C)no1 | inconclusive: 28.2 µM [inhibitor, single point] | 
40 | COc1ccc(OCCSc2nnc3sc4ccccc4n23)cc1 | inconclusive: 3.55 µM [fluorescent, side channel, partial curve] | 
41 | CSCc1c(C(=O)Nc2ccc3c(c2)OCO3)oc2ccccc12 | inconclusive: 31.6 µM [quencher, partial curve] | 
42 | Brc1cc2c(cc1C1Nc3ccccc3C3C=CCC31)OCO2 (stereo unspecified) | inconclusive: 12.6 µM [inhibitor, partial curve] | 
43 | Fc1cccc(NC(=S)NNc2ccccc2)c1 | inconclusive: 20 µM [quencher, single point] | 
44 | CCC(C)(C)c1ccc(OCCCC[n+]2ccc(C)cc2)c(C(C)(C)CC)c1 | inconclusive: 4.47 µM [fluorescent, side channel, partial curve] | 
45 | CCC(CC)Nc1ccc(C(CC(N)=O)NC(=O)Cc2cccc3ccccc23)cc1[N+](=O)[O-] (stereo unspecified) | inconclusive: 39.8 µM [fluorescent, side channel, single point] | 
46 | CCN1C(=O)C(CC(=O)Nc2ccc(F)cc2)N(CCc2ccc(OC)cc2)C1=S (stereo unspecified) | inconclusive: 12.6 µM [quencher, side channel, partial curve] | 
47 | O=C(Nc1nnc(-c2ccc(Cl)cc2)o1)c1nc2ccccc2s1 | inconclusive: 25.1 µM [quencher, side channel, single point] | 
48 | CCOc1ccc(S(=O)(=O)Nc2nc3ccccc3nc2Nc2ccc(N3CCOCC3)cc2)cc1 | inconclusive: 11.2 µM [quencher, side channel, partial curve] | 
49 | C/C(CCN1CCCc2nc(C)c(C)cc21)=N\O[C@@H](C)c1cn([C@H](CO)Cc2ccccc2)nn1 |  | inactive: -22.1% [at 11.7 µM] and inactive: -17.4% [at 11.7 µM]
50 | Cc1nc2c(-c3ccccc3)c(C)[nH]n2c(=O)c1Cl | inconclusive: 39.8 µM [quencher, side channel, single point] | 
51 | Cc1noc(C)c1-c1cc(N2CCNCC2)ncn1 | inactive | 
52 | O=C1CN(S(=O)(=O)c2ccccc2)CCN1S(=O)(=O)c1ccccc1 | inactive | 
53 | CCOc1ccc(-n2c(=O)c3c4c(sc3n(CC(=O)NCCCOC)c2=O)CCCCC4)cc1 | inconclusive: 31.6 µM [fluorescent, side channel, single point] | 
54 | CCOC(=O)C(CSCc1ccccc1)NC(=O)OC(C)(C)C (stereo unspecified) | inconclusive: 15.8 µM [fluorescent, side channel, partial curve] | 
55 | Cc1ccc2c(c1)N(CC(=O)NCCC1=CCCCC1)C(=O)c1cccnc1O2 | inactive | 
56 | CCCCCCNCc1c(F)cccc1Cl | inconclusive: 39.8 µM [fluorescent, side channel, single point] | 
